# Measurements taken from PubChem BioAssay AID686979 (National Center for Advancing Translational Sciences (NCATS), 2013).
# About 50,000 (12%) of roughly 420,000 compounds were called active. This list was built around the results that the source calls inconclusive (neither active nor inactive); the mix of calls is not that of the screen. The call rests on the fitted dose curve; in most records, active means well fitted inhibition curve with a large enough effect; inconclusive means small, poorly fitted or top-dose-only effect; inactive means flat fitted curve, though single readings scatter. No potency is given beside an inconclusive call; the fits are too rough.
# Test: qHTS for Inhibitors of human tyrosyl-DNA phosphodiesterase 1 (TDP1): qHTS in cells in presence of CPT; further: nearly all actives have a fitted effect of over 55% in size
# Settings: chicken DT40 Tdp1-/-;hTDP1 cells + 20 nM CPT, ATP luminescence, 48 h; activity change, negative = growth inhibition: at 46.2 µM (top of the series)
# In short: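 Chicken DT40 Tdp1-/- cells complemented with human TDP1, 400 cells/well, exposed to compounds plus 20 nM camptothecin for at least 48 h at 37 C; viability read as ATP content by CellTiter-Glo luminescence.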
# On the % scale 0 is the no-effect control and ±100 the full control effect; potency means the concentration at half of the fitted maximal effect; tags describe the fitted curve by direction and shape.
SMILES,Potency,"activity change, negative = growth inhibition"
S=c1[nH]nc(-c2cc(-c3ccsc3)n[nH]2)n1-c1cccc2ccccc12,"inconclusive [inhibitor, single point]",
CC1=C(C(=O)NC(C)c2ccc3c(c2)OCCO3)C2(CCC(C)CC2)OC1=O (stereo not given),"inconclusive [inhibitor, partial curve]",
C[C@H](NC(=O)OC(C)(C)C)c1nnc(SCC(=O)c2ccc(Cl)cc2)o1,active: 16.4 µM,
Cc1nc2c(C(=O)NCCc3ccc(Cl)cc3)cnn2c(C)c1Cc1ccc(F)cc1,active: 16.4 µM,
Cc1cccc(NC(=O)CSCC(=O)N2CCN(c3cccc(C(F)(F)F)c3)CC2)c1,"inconclusive [inhibitor, single point]",
COc1ccc(N2C(N)=C(C#N)C(c3cc(CN4CCOCC4)cs3)C3=C2CCCC3=O)cc1 (stereo not given),"inconclusive [inhibitor, single point]",
CCCc1ccc(OCc2ccc(C(=O)N3CCCC3)o2)cc1,"inconclusive [inhibitor, single point]",
CCn1c(Sc2ccc(N)cc2Cl)nc2ccccc21,,inactive: -12.3%
O=[N+]([O-])c1ccc(O)c(/C=N/NC2=NS(=O)(=O)c3ccccc32)c1,active: 4.11 µM,
COc1ccc(NS(=O)(=O)c2ccc(-n3cccn3)cc2)cc1OC,active: 5.8 µM,
CNC(=O)COC(=O)c1cc(-c2ccccc2)nn1-c1ccccc1,"inconclusive [inhibitor, single point]",
COc1cc(OC)c2c(-c3ccccc3)cc(=O)oc2c1C(CC(=O)N1CCCC1)c1ccc2c(c1)OCO2 (stereo not given),"inconclusive [inhibitor, single point]",
CCOC(=O)c1c(N)sc(C(=O)OCCOC)c1C,,inactive: -12.4%
COc1ccc([C@H]2C[C@@H](O)[C@H](n3cc(COC(=O)c4ccccc4)nn3)CN2C(=O)C2CCCCC2)cc1,,inactive: -36%
CCCn1c(NC(=O)CN2C(=O)NC3(CCCCC3)C2=O)nc2ccccc21,"inconclusive [inhibitor, single point]",
Cn1c(=O)c2cc(NC(=O)Nc3cccnc3)ccc2n1Cc1ccc(Cl)cc1,"inconclusive [inhibitor, single point]",
CCN(C(=O)COC(=O)c1ccccc1Nc1ccccc1)c1c(N)n(Cc2ccccc2)c(=O)[nH]c1=O,"inconclusive [inhibitor, single point]",
COC(=O)C1C(=O)C=C(Nc2ccc(F)cc2F)CC1c1ccccc1 (stereo not given),,inactive: -15.6%
O=[N+]([O-])c1ccc(N2CCN(c3ccccc3F)CC2)c(S(=O)(=O)N2CCOCC2)c1,,inactive: -24.6%
CN(C(=O)c1cc2nc(-c3ccc4c(c3)OCO4)cc(C(F)(F)F)n2n1)c1ccc(OC(F)(F)F)cc1,,inactive: -11.4%
CC(Cc1ccsc1)NC(=O)CCc1nnc(CCc2ccccc2)o1 (stereo not given),,inactive: 3.45%
CCOc1ccc2oc(C(=O)OCC(=O)N3C(C)CCCC3C)c(C)c2c1 (stereo not given),"inconclusive [inhibitor, single point]",
CCC(=O)N1CCC(C)(C(=O)NCc2ccc(F)cc2)C1 (stereo not given),,inactive: 1.67%
CCCSc1nc2sc3c(c2c(=O)n1-c1ccc(C)c(Cl)c1)CCN(C(C)=O)C3,active: 23.1 µM,

SMILES,Potency,"activity change, negative = growth inhibition"
COc1ccccc1-c1c(C(F)(F)F)oc2cc(OS(C)(=O)=O)ccc2c1=O,"inconclusive [inhibitor, single point]",
COc1ccc2c(c1)[C@@]1(C)CCC[C@](C)(CO)C1CC2 (stereo not given in full),"inconclusive [inhibitor, single point]",
COCCC(=O)N1CCC(Oc2ccc(C(=O)NCCC3=CCCCC3)cc2)CC1,active: 16.4 µM,
Oc1ccc(C[C@H]2CNCCN2CCc2cc(C(F)(F)F)cc(C(F)(F)F)c2)cc1,active: 10.3 µM,
O=C(N/N=C/c1cn(-c2ccccc2)nc1-c1cccs1)c1ccccc1F,active: 16.4 µM,
CCC(C)NC(=O)COc1ccc(OCc2ccccc2)cc1 (stereo not given),"inconclusive [inhibitor, single point]",
COc1ccccc1C(=O)NCC(=O)N/N=C/c1cc(Br)ccc1OCc1ccccc1,"inconclusive [inhibitor, single point]",
O=C(N/N=C/c1ccc(Cl)cc1Cl)c1ccncc1,,inactive: 14.6%
COc1ccccc1NS(=O)(=O)c1ccc(C)c(C(=O)NCC(c2cccs2)N2CCOCC2)c1 (stereo not given),"inconclusive [inhibitor, single point]",
O=C(Nc1ccccc1F)c1oc2ccccc2c1NC(=O)c1c(F)cccc1F,"inconclusive [inhibitor, single point]",
Cc1cccc(-c2nnc(SCC(=O)N3CCCCC3)o2)c1,"inconclusive [inhibitor, single point]",
CC(=O)NC(Cc1ccc(F)cc1)C(=O)NC1CCN(C(=O)Nc2ccc(F)cc2)CC1 (stereo not given),,inactive: -2.18%
COc1ccccc1N1CCN(C(=O)c2ccc(Nc3nc4ccccc4n4nnnc34)cc2)CC1,active: 9.2 µM,
CCn1c(=O)n(CC)c2cc(N3CCCC3)c(NC(=O)Nc3cc(C)cc(C)c3)cc21,active: 20.6 µM,
Cc1c(NC(=O)c2ccc(COc3ccc4ccccc4c3)o2)c(=O)n(-c2ccccc2)n1C,"inconclusive [inhibitor, single point]",
CC1CN(CCN2CC(C)N(C=O)CC2C)C(C)CN1C=O (stereo not given),,inactive: 32.6%
CCN(CC)CCCNC(=O)CNC(=S)N(CCCN1CCOCC1)Cc1cccs1,,inactive: -27.5%
COC(=O)c1ccccc1NC(=O)c1ccc(=O)n(Cc2cccc(C)c2)c1,"inconclusive [inhibitor, single point]",
NC(=O)COC(=O)CCCc1c[nH]c2ccccc12,,inactive: -11%
CCOCCn1c(C)c(C(=O)OCC)c2cc(O)c3ccccc3c21,"inconclusive [inhibitor, single point]",
N#Cc1cccc(NC(=O)C2CCN(c3nc(-c4ccc(Cl)cc4)no3)CC2)c1,active: 13 µM,
Cc1ccc(CNC(=O)c2nn(C)c3c2CSc2ccc(C)cc2-3)cc1,"inconclusive [inhibitor, single point]",
C=CCC(=O)OCCCCCCOc1ccc(C(=O)O)cc1,"inconclusive [inhibitor, single point]",
COc1cc(NC(=O)C2CCC(CNS(=O)(=O)c3csc(C(N)=O)c3)CC2)cc(OC)c1 (stereo not given),,inactive: -9.64%

SMILES,Potency,"activity change, negative = growth inhibition"
CCCN(Cc1ccc(C)cc1)C(=O)c1ccc(CNS(=O)(=O)c2ccc(C(C)=O)cc2)cc1,"inconclusive [inhibitor, single point]",
Cc1ccc(S(=O)(=O)N(C(=O)c2ccco2)c2cc3sc(=O)oc3c3ccccc23)cc1,active: 5.17 µM,
COc1cc(NS(=O)(=O)c2ccc(NC(=S)NC(=O)c3cccs3)cc2)nc(OC)n1,,inactive: -8.59%
CCn1c(CN2CCCCC2)nc2cc(NC(=O)c3cccc([N+](=O)[O-])c3)ccc21,active: 18.4 µM,
COC(=O)CCC(=O)NNC(=O)c1cccc(Br)c1,"inconclusive [inhibitor, single point]",
CCN(CC)S(=O)(=O)c1ccc(Cl)c(NC(=O)c2cc(Cl)ccc2Cl)c1,,inconclusive: -31.2% [inhibitor]
COc1cc(/C=N/NC(=O)CN2CCCCC2)ccc1OCc1ccccc1,,inactive: 2.6%
Cc1c(C(=O)Nc2cccc(-c3nc4ccccc4s3)c2)oc2ccc(F)cc12,"inconclusive [inhibitor, single point]",
O=C(NCc1ccccc1)c1onc(CSc2ccccn2)c1C(=O)NCc1ccccc1,"inconclusive [inhibitor, single point]",
CC(Nc1nc(N2CCCCC2)nc2ccccc12)c1ccccc1 (stereo not given),"inconclusive [inhibitor, single point]",
CC(C)c1ccc(NC(=O)Cn2c3ncccc3c(=O)n2-c2ccccc2)cc1,"inconclusive [inhibitor, single point]",
O=C(COC(=O)c1ccc(O)cc1)Nc1ccccc1-c1ccccc1,"inconclusive [inhibitor, single point]",
CS(=O)(=O)/C(C#N)=C/c1cccn1S(=O)(=O)c1ccc([N+](=O)[O-])cc1,"inconclusive [inhibitor, partial curve]",
CN1C(=O)/C(=C\c2cc(N=Nc3ccccc3)ccc2O)SC1=S,active: 20.6 µM,
O=C(NCCc1ccco1)c1nn(Cc2ccccc2)c(=O)c2ccccc12,"inconclusive [inhibitor, single point]",
CCOc1ccc(-c2nnc(SCC(=O)Nc3cc(C)ccc3OC)o2)cc1,"inconclusive [inhibitor, partial curve, poor fit]",
COc1ccc(CCN2CC(C(=O)NCCc3ccccc3C(F)(F)F)CCC2=O)cc1 (stereo not given),,inactive: -13.1%
COc1ccc(NC(=O)c2ccc(N(C)S(C)(=O)=O)cc2)cc1OC,"inconclusive [inhibitor, partial curve]",
CC(=O)OC[C@@H]1CN(Cc2cccc(C(F)(F)F)c2)C[C@H](n2cnc3c(NCc4ccco4)ncnc32)O1,"inconclusive [inhibitor, single point]",
O=C(c1ccc(Oc2ccc(Cl)cc2)c([N+](=O)[O-])c1)N1CCCC1,active: 13 µM,
CC(NC(=O)CN(C)S(=O)(=O)c1cccc2nsnc12)c1ccccc1 (stereo not given),,inactive: 10.3%
COc1ccccc1NC(=O)CSc1oc(-c2ccc(F)cc2)nc1S(=O)(=O)c1ccc(Br)cc1,active: 20.6 µM,
